Source: the supplement of paper PMC7335073
In all, about 4,100 sequences were measured (“relative CpG methylation activity (normalised to average over all NNNCGNNN flanks)”: median about 0.94, highest 2% from about 1.9 on). This is one part of the list.

The sequences below were run against DNMT3B catalytic domain (mouse) (UniProt O88509) (assay: relative CpG methylation activity (normalised to average over all NNNCGNNN flanks) (relative (1 = mean)); higher = more methylation of the central CpG). Conditions: system: in vitro, murine catalytic domain; CpG state: hemimethylated substrate pool; residues: 558-859.
Method in brief: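 Each experiment was done in two independent repeats, using pooled dsDNA substrates with a central CpG flanked by 10 random nucleotides, methylated for 60 min at 37 °C by the murine DNMT3A or DNMT3B catalytic domain with 0.8 mM S-adenosyl-L-methionine in HEPES pH 7.5 buffer. After bisulfite conversion and PCR, the DNA was read by Illumina sequencing. Methylation was averaged per context, defined by three bases on each side of the CpG. Relative methylation activity is each context's average methylation over the mean of all contexts.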

Sequence of UniProt O88509 (O88509 558-859): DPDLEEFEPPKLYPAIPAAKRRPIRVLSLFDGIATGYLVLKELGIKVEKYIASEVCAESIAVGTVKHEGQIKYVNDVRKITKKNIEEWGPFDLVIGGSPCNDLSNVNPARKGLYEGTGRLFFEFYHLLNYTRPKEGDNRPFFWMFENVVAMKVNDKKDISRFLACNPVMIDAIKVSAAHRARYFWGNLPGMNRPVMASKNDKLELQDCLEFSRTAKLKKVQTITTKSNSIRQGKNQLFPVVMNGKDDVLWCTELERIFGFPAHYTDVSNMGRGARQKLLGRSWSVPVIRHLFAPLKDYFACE

Sequence | relative CpG methylation activity
CACCGCGG | 0.304
TTCCGTGG | 0.321
AGCCGATC | 1.21
TGCCGAGA | 1.52
ACTCGTAG | 0.333
GCTCGGCG | 1.53
GGCCGGGC | 0.979
GACCGACG | 0.943
GCTCGTGA | 0.377
CTTCGTCG | 0.828
CCTCGGTC | 1.3
TGCCGTAG | 0.147
TGTCGCTA | 0.715
GAGCGGGA | 0.973
CTCCGTGA | 0.787
TTACGCTA | 1.71
AACCGTCG | 0.251
CATCGTGC | 0.699
AACCGTCC | 0.606
AGACGATG | 1.19
ATCCGACA | 1.43
TGCCGTCT | 0.354

Sequence | relative CpG methylation activity
GCTCGGTT | 1.28
ATACGGGA | 1.66
ACCCGACA | 1.34
TGGCGGTG | 0.571
GTGCGCTC | 1.47
CCTCGGGG | 0.833
CGCCGCGG | 0.227
TAGCGCAA | 0.42
AATCGAAT | 1.3
CTACGGAT | 1.41
CAACGAAT | 1.41
TAACGCTG | 1.35
CGACGCGA | 0.549
CATCGTGT | 0.414
ACGCGGAC | 0.836
CCACGCCA | 1.27
CGGCGCGA | 0.254
ACCCGATA | 1.52
TCTCGCAA | 0.445
TGCCGAGT | 1.25
AGCCGTCC | 0.433
AAGCGATT | 1.16

Sequence | relative CpG methylation activity
ATGCGGCT | 1.55
TTGCGCGT | 0.854
TATCGTCA | 0.499
ACGCGGCT | 1.34
AGCCGACG | 0.572
GTCCGATT | 1.27
CCGCGTGA | 0.505
CTTCGGGA | 1.7
TACCGCGC | 0.388
GCGCGGAA | 0.631
CTGCGGAG | 0.811
TTGCGCTC | 1.18
AGGCGGGA | 0.382
TACCGAAG | 0.809
TCGCGTGC | 0.524
ATTCGATA | 1.54
ATACGGAC | 1.59
CAGCGGGA | 0.811
GAGCGCCA | 0.656
CACCGCAG | 0.317
CGTCGACC | 1.27
ATGCGTTT | 0.585

Sequence | relative CpG methylation activity
CCTCGCGT | 0.512
GCTCGGAC | 0.945
ATTCGCTT | 0.878
GCCCGAGG | 1.27
AATCGGAG | 0.619
AGGCGGAT | 0.466
AACCGCCC | 0.539
TGCCGCTA | 0.403
TACCGAGG | 0.949
GACCGTTG | 0.161
TGACGGAA | 1.06
CGGCGAGC | 1.01
TCACGGGT | 1.3
TACCGCCT | 0.791
GGACGAAT | 1.03
CTACGCGT | 1.43
TAGCGCTA | 0.422
AAGCGGCT | 0.846
TGGCGGAT | 0.475
GTCCGGTG | 1.39
